Source: paper PMC3516535, “Rhesus Macaque Theta Defensins Suppress Inflammatory Cytokines and Enhance Survival in Mouse Models of Bacteremic Sepsis” (PLoS ONE, 2012)

Tested on: BALB/c mice challenged with E. coli K12
Settings: mouse, in vivo

Which results are given for CC[C@H](C)[C@@H]1NC(=O)[C@@H]2CSSC[C@H](NC(=O)[C@H](CCCNC(=N)N)NC(=O)[C@@H]3CSSC[C@H](NC1=O)C(=O)N[C@@H]([C@@H](C)O)C(=O)N[C@@H](CCCNC(=N)N)C(=O)NCC(=O)N[C@@H](Cc1ccccc1)C(=O)N3)C(=O)N[C@@H](CC(C)C)C(=O)N[C@H]1CSSC[C@H](NC(=O)[C@H](C(C)C)NC(=O)CNC(=O)[C@H](CCCNC(=N)N)NC(=O)[C@H](CCCNC(=N)N)NC1=O)C(=O)N[C@@H](CCCNC(=N)N)C(=O)N2 [RTD-1] (cyclo(GFCRCLCRRGVCRCICTR); disulfide 3-16, 5-14, 7-12)?
plasma cytokine/chemokine levels in uninfected animals: unaltered; decreases of plasma IL-1α, IL-1β and VEGF (sc, 5 mg/kg): statistically significant; plasma cytokine/chemokine levels (IL-1α, IL-1β, IL-6, IL-10, CXCL1, CCL2, CCL3, CXCL5, TNF, VEGF) (sc, 5 mg/kg): reductions of all cytokines

Bridge positions count the residues as written; N and C are the ends. Peptide text beside a SMILES is read from it.
